According to PubChem BioAssay (Tox21):
Values joined by “and” are separate entries in the source; they are usually repeats but may differ in a detail not shown here. Equal entries are not always repeated. This list was built around the results that the source calls inconclusive (neither active nor inactive); the mix of calls is not that of the screen. For some assays here: Potencies of inconclusive entries are doubtful fits and often do not repeat. Active and inactive are the calls of the source. Unless noted, the call rests on the fitted dose curve.

Experiments:
[1] = target: Glucocorticoid receptor (Homo sapiens) (UniProt P04150); experiment: qHTS assay to identify small molecule antagonists of the glucocorticoid receptor (GR) signaling pathway (AID 720692; active means well fitted inhibition curve with a large enough effect in the signal ratio in the repeat runs, not every such curve was filed as active; inconclusive means weak or mixed curves, or effect the other way; inactive means no such curve, though single readings can be large or run the other way; the % refers to the signal ratio; on all read-outs here: on the % scale 0 is the no-effect control and ±100 the full control effect); details: GR-bla HeLa, beta-lactamase FRET ratio, dexamethasone-stimulated, 18 h; for Potency: activity change, negative = inhibition: at 58.5 µM (top of the series) unless noted
Method in brief: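 GR-bla HeLa cells (beta-lactamase reporter under glucocorticoid response element) were pre-plated 4 h at 37 C, treated with compounds plus 5 nM dexamethasone (final) for 18 h, then read by LiveBLAzer B/G FRET fluorescence after 2 h.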

[2] = qHTS assay for identifying genotoxic compounds that show differential cytotoxicity against isogenic chicken DT40 cell lines with known DNA damage response pathways - Rev3 mutant cell line (AID 743014; active means well fitted curve in the direction sought with a large enough effect in the repeat runs; inconclusive means weak or mixed curves; inactive means no such curve, though single readings can be large; an effect the other way counts as inactive or inconclusive; further: nearly all actives have a fitted effect of over 55% in size; further: potency means the concentration at half of the fitted maximal effect); details: chicken DT40 Rev3-/- viability, CellTiter-Glo, 40 h; activity, negative = cytotoxicity: at 68.4 µM (top of the series)
[3] = qHTS assay to identify small molecule antagonists of the thyroid receptor (TR) signaling pathway - cell viability counter screen (AID 743064; active means well fitted curve in the direction sought with a large enough effect in the repeat runs; inconclusive means weak or mixed curves; inactive means no such curve, though single readings can be large; an effect the other way counts as inactive or inconclusive; further: nearly all actives have a fitted effect of over 50% in size; further: potency means the concentration at half of the fitted maximal effect); details: GH3.TRE-Luc viability, CellTiter-Fluor, 24 h; activity change, negative = cytotoxic: at 70.3 µM (top of the series) unless noted
Method in brief: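 Fluorescence from CellTiter-Fluor, added after 23.5 h exposure at 37 °C, reported viability of GH3.TRE-Luc cells co-treated with compound and 1 nM T3. Measured in the same wells as the luciferase TR readout.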

[4] = qHTS assay for small molecule agonists of the antioxidant response element (ARE) signaling pathway (AID 743202; active means well fitted activation curve with a large enough effect in the signal ratio in the repeat runs, not every such curve was filed as active; inconclusive means weak or mixed curves, or effect the other way; inactive means no such curve, though single readings can be large or run the other way; the % refers to the signal ratio; further: potency means the concentration at half of the fitted maximal effect; on activation: on the % scale 0 is the no-effect control and ±100 the full control effect); details: HepG2 ARE-bla reporter, beta-lactamase FRET, 16 h; activation: at 73.3 µM (top of the series) unless noted
Method in brief: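 An ARE-responsive beta-lactamase gene stably integrated in HepG2 cells serves as reporter. After 5 h plating and 16 h compound incubation at 37 C, fluorescence of the B/G FRET substrate was measured.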

[5] = target: Vitamin D3 receptor (Homo sapiens) (UniProt P11473); experiment: qHTS assay to identify small molecule antagonists of the vitamin D receptor (VDR) signaling pathway (AID 743223; active means well fitted inhibition curve with a large enough effect in the signal ratio in the repeat runs, not every such curve was filed as active; inconclusive means weak or mixed curves, or effect the other way; inactive means no such curve, though single readings can be large or run the other way; the % refers to the signal ratio; further: on the % scale 0 is the no-effect control and ±100 the full control effect); details: VDR-UAS-bla HEK293T, beta-lactamase FRET ratio, 16 h; activity change, negative = inhibition: at 61 µM (top of the series) unless noted
Method in brief: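 Antagonist mode uses 1alpha,25-dihydroxyvitamin D3 at 3 nM final as stimulus. VDR-bla cells receive compounds in DMSO, incubate 16 h at 37C, then a beta-lactamase FRET substrate for 2 h at room temperature before fluorescence measurement.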

[6] = qHTS assay to identify small molecule agonists of the AP-1 signaling pathway (AID 1159526); details: ME-180 (cervical carcinoma) AP-1-bla reporter, beta-lactamase FRET ratio, 5 h; activation: at 76.8 µM (top of the series) unless noted; further: potency means the concentration at half of the fitted maximal effect; on activation: on the % scale 0 is the no-effect control and ±100 the full control effect
[7] = target: Retinoic acid receptor RXR-alpha (Homo sapiens) (UniProt P19793); experiment: qHTS assay to identify small molecule agonists of the RXR signaling pathway (AID 1159527); details: HEK293T RXRa-UAS-bla, beta-lactamase ratio, 16 h; activation: at 76.8 µM (top of the series) unless noted; further: on the % scale 0 is the no-effect control and ±100 the full control effect; nearly all actives have a fitted effect of over 35% in size
Method in brief: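 Read-out: beta-lactamase FRET ratio (405 nm excitation, 460 and 530 nm emission) after 2 hr substrate loading at room temperature. Cells were RXR-alpha-UAS-bla HEK 293T treated with compounds for 16 hr in 2% charcoal-stripped FBS medium.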

[8] = target: Estrogen receptor beta (Homo sapiens) (UniProt Q92731); experiment: qHTS assay to identify small molecule antagonists of the estrogen receptor beta (ER-beta) signaling pathway (AID 1259378; active means well fitted inhibition curve with a large enough effect in the signal ratio in the repeat runs, not every such curve was filed as active; inconclusive means weak or mixed curves, or effect the other way; inactive means no such curve, though single readings can be large or run the other way; the % refers to the signal ratio; further: potency means the concentration at half of the fitted maximal effect); details: ER-beta-UAS-bla HEK293T, beta-lactamase FRET ratio, 16 h; activity, negative = inhibition: at 92.4 µM (top of the series) unless noted
Method in brief: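 Antagonist mode: compounds added to beta-lactamase reporter HEK293T ER-beta-UAS cells stimulated with E2 (1nM final), 16 hr at 37C. LiveBLAzer B/G FRET substrate, 2 hours room temperature, fluorescence read-out.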

[9] = target: Cytochrome P450 1A2 (Homo sapiens) (UniProt P05177); experiment: Cytochrome P450 Family 1 Subfamily A Member 2 (CYP1A2) small molecule antagonists: luciferase reporter qHTS assay (AID 1671199; active means well fitted curve in the direction sought with a large enough effect in the repeat runs; inconclusive means weak or mixed curves; inactive means no such curve, though single readings can be large; an effect the other way counts as inactive or inconclusive; further: nearly all actives have a fitted effect of over 50% in size; further: potency means the concentration at half of the fitted maximal effect); details: P450-Glo CYP1A2 enzyme, luciferin luminescence, 1 h; series mostly up to 115 µM
Method in brief: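 Human CYP1A2 activity measured with a P450-Glo proluciferin substrate; compounds in DMSO preincubated 10 min at room temperature with enzyme-substrate mix, then NADPH regeneration system added for 1 h. Luciferin detection reagent, 20 min, luminescence read.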

[10] = qHTS assay for small molecule disruptors of the mitochondrial membrane potential (AID 720635; active means well fitted curve in the direction sought with a large enough effect in the repeat runs; inconclusive means weak or mixed curves; inactive means no such curve, though single readings can be large; an effect the other way counts as inactive or inconclusive; further: potency means the concentration at half of the fitted maximal effect); details: HepG2 mitochondrial membrane potential, Mito-MPS dye ratio; ratio activity, negative = MMP loss: at 83.2 µM (top of the series) unless noted
Method in brief: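 Mitochondrial membrane potential tracked with Mito-MPS dye, red aggregates (ex 540/em 590 nm) against green monomers (ex 490/em 535 nm). Compound treatment 1 hr at 37C, dye 30 min in HepG2.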

[11] = qHTS assay to identify small molecule agonists of the estrogen receptor beta (ER-beta) signaling pathway - cell viability counter screen (AID 1259380; active means well fitted curve in the direction sought with a large enough effect in the repeat runs; inconclusive means weak or mixed curves; inactive means no such curve, though single readings can be large; an effect the other way counts as inactive or inconclusive; further: nearly all actives have a fitted effect of over 30% in size; further: potency means the concentration at half of the fitted maximal effect); details: ER-beta-bla HEK293T viability, CellTiter-Glo luminescence, 16 h; series mostly up to 92.4 µM
Method in brief: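 ER-beta-UAS-bla HEK293T cells in medium with 2% charcoal-stripped FBS were preincubated 6 hr at 37C, dosed with compound in DMSO for 16 hr, then after the bla read, CellTiter-Glo was added for 30 min at room temperature; luminescence recorded.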

[12] = qHTS assay to identify small molecule agonists of the progesterone receptor (PR) signaling pathway - cell viability counter screen (AID 1346799); details: PR-UAS-bla HEK293T viability, CellTiter-Glo luminescence, 16 h; series mostly up to 92.4 µM; further: nearly all actives have a fitted effect of over 45% in size; further: potency means the concentration at half of the fitted maximal effect
Method in brief: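 Luminescence from CellTiter-Glo, added after the beta-lactamase FRET read in the same wells, gave cytotoxicity in PR-UAS-bla HEK293T cells treated with compounds for 16 hr at 37C.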

[13] = target: Cytochrome P450 2C9 (Homo sapiens) (UniProt P11712); experiment: Cytochrome P450 Family 2 Subfamily C Member 9 (CYP2C9) small molecule antagonists: luciferase reporter qHTS assay (AID 1671198; active means well fitted curve in the direction sought with a large enough effect in the repeat runs; inconclusive means weak or mixed curves; inactive means no such curve, though single readings can be large; an effect the other way counts as inactive or inconclusive; further: potency means the concentration at half of the fitted maximal effect; nearly all actives have a fitted effect of over 50% in size); details: P450-Glo CYP2C9 enzyme assay, luciferin luminescence; series mostly up to 115 µM
Method in brief: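 Enzyme-substrate mix preincubated with compound 10 min at room temperature; reaction started with NADPH regeneration solution, 1 h 37C. Luminescent luciferin product read after 20 min detection reagent.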

[14] = target: Peroxisome proliferator-activated receptor gamma (Homo sapiens) (UniProt P37231); experiment: qHTS assay to identify small molecule antagonists of the peroxisome proliferator-activated receptor gamma (PPARg) signaling pathway (AID 743191); details: HEK293H PPARg-UAS-bla, beta-lactamase ratio, antagonist, 17 h; further: nearly all actives have a fitted effect of over 30% in size; further: potency means the concentration at half of the fitted maximal effect
Method in brief: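 Beta-lactamase reporter under UAS control in HEK293H PPARg-bla cells; compound treatment 17 h at 37C. Read-out: fluorescence intensity after 1 h room-temperature incubation with LiveBLAzer B/G FRET substrate.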

[15] = target: Cytochrome P450 2D6 (Homo sapiens) (UniProt P10635); experiment: Cytochrome P450 Family 2 Subfamily D Member 6 (CYP2D6) small molecule antagonists: luciferase reporter qHTS assay (AID 1671196; active means well fitted curve in the direction sought with a large enough effect in the repeat runs; inconclusive means weak or mixed curves; inactive means no such curve, though single readings can be large; an effect the other way counts as inactive or inconclusive; further: nearly all actives have a fitted effect of over 50% in size; further: potency means the concentration at half of the fitted maximal effect); details: P450-Glo CYP2D6 enzyme assay, luciferin luminescence, 1 h; series mostly up to 115 µM
Method in brief: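 CYP2D6 enzyme–substrate mix was held with compound for 10 min at room temperature, then NADPH regeneration solution was added and the reaction ran 1 h at room temperature. Luciferin product was detected by luminescence after 20 min with detection reagent.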

[16] = qHTS assay to identify small molecule agonists of H2AX (AID 1224845; active means well fitted activation curve with a large enough effect in the signal ratio in the repeat runs, not every such curve was filed as active; inconclusive means weak or mixed curves; the % refers to the signal ratio; further: potency means the concentration at half of the fitted maximal effect); details: CHO-K1 phospho-H2AX Ser139 HTRF, 3 h; activation (H2AX phosphorylation): at 154 µM (top of the series) unless noted
Method in brief: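 Phospho-H2AX Ser139 measured by HTRF (ex 320 nm; em 665 and 620 nm) after 24 hr antibody incubation. Compounds, 15 concentrations, 0.76% DMSO, were applied to CHO-K1 cells for 3hr at 37C before lysis.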

[17] = qHTS assay to identify small molecule antagonists of the sonic hedgehog signaling (Shh) pathway (AID 1259369); details: NIH/3T3 Gli1-Luc reporter, Shh antagonist, luminescence 24 h; series mostly up to 92.4 µM; further: potency means the concentration at half of the fitted maximal effect; nearly all actives have a fitted effect of over 45% in size
Method in brief: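 NIH/3T3-derived 3T3Gli1-Luc cells with stably integrated Gli1-Luc reporter were preincubated 4hr at 37 C, then given compounds in DMSO plus Shh conditioned medium and incubated 24hr. Firefly luciferase luminescence read after 30min reagent at room temperature.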

[18] = target: Progesterone receptor (Homo sapiens) (UniProt P06401); experiment: qHTS assay to identify small molecule antagonists of the progesterone receptor (PR) signaling pathway (AID 1346795; active means well fitted inhibition curve with a large enough effect in the signal ratio in the repeat runs, not every such curve was filed as active; inconclusive means weak or mixed curves; the % refers to the signal ratio; further: potency means the concentration at half of the fitted maximal effect); details: PR-UAS-bla HEK293T, beta-lactamase FRET ratio, 16 h; activity change, negative = inhibition: at 92.4 µM (top of the series) unless noted
Method in brief: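 Read-out is fluorescence from the LiveBLAzer B/G FRET substrate, cleaved by a UAS-controlled beta-lactamase in PR-UAS-bla HEK293T cells after 16 hr exposure to compound plus 1 nM promegestone (final), followed by 2 hr at room temperature.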

[19] = qHTS assay to identify small molecule antagonists of the progesterone receptor (PR) signaling pathway - cell viability counter screen (AID 1346798; active means well fitted curve in the direction sought with a large enough effect in the repeat runs; inconclusive means weak or mixed curves; inactive means no such curve, though single readings can be large; an effect the other way counts as inactive or inconclusive); details: PR-UAS-bla HEK293T viability, CellTiter-Glo luminescence, 16 h; series mostly up to 92.4 µM
Method in brief: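 HEK293T PR-UAS-bla, 2% charcoal-stripped FBS; 4 hr pre-plate; cpd + R5020, 16 h 37C; LiveBLAzer read first; then CellTiter-Glo 30 min RT, luminescence.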

[20] = ratio activity, negative = inhibition: at 62.6 µM (top of the series) unless noted
Tags describe the fitted curve by direction and shape or compound fluorescence and quenching.

Sequence of UniProt P11473 (P11473 whole entry, looked up): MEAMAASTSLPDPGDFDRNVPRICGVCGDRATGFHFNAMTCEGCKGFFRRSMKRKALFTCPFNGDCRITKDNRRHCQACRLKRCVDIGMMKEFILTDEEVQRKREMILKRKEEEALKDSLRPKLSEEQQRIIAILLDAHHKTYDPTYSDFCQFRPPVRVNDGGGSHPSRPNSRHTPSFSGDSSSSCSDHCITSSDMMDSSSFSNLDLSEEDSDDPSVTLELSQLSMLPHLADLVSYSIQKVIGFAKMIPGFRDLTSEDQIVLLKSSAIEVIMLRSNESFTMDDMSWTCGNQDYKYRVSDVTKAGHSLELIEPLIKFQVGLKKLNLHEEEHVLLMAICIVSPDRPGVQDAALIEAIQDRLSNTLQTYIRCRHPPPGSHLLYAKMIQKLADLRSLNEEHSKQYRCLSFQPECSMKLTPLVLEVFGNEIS
Sequence of UniProt P04150 (P04150 whole entry, looked up): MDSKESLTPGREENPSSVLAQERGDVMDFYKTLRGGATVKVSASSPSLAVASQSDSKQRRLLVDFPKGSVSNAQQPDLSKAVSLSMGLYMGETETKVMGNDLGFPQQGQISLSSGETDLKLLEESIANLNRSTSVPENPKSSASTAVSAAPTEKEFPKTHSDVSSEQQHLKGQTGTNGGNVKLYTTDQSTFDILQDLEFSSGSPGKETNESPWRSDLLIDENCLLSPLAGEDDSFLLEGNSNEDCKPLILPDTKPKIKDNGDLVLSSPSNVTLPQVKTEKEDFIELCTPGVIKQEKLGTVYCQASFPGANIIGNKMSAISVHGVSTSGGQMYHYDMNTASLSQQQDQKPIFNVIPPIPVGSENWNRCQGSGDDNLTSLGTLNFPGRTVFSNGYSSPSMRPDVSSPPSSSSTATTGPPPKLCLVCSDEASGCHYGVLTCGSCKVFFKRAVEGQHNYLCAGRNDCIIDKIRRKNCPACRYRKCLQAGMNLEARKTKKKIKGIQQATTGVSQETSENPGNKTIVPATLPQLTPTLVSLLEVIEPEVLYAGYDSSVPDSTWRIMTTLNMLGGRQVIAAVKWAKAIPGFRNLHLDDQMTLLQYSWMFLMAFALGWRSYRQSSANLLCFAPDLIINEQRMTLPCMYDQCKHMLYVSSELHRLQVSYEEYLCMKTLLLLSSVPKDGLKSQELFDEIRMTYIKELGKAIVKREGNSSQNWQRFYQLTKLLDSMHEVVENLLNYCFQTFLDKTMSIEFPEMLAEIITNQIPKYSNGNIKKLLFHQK
Sequence of UniProt P37231 (P37231 whole entry, looked up): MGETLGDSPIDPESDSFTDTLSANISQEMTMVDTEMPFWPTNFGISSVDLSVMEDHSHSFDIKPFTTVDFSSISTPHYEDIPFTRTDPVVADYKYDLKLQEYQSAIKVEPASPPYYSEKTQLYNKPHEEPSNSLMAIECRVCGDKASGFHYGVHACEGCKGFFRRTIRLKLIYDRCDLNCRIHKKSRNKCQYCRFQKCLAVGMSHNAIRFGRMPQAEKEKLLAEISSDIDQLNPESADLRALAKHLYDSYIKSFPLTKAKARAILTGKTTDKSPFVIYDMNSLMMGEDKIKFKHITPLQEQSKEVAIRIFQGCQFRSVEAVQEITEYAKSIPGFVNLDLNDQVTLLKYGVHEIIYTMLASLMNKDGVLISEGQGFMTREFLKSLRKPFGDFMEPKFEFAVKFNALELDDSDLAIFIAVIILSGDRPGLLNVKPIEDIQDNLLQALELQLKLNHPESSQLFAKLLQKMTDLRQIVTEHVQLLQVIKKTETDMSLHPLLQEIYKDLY
Sequence of UniProt P05177 (P05177 whole entry, looked up): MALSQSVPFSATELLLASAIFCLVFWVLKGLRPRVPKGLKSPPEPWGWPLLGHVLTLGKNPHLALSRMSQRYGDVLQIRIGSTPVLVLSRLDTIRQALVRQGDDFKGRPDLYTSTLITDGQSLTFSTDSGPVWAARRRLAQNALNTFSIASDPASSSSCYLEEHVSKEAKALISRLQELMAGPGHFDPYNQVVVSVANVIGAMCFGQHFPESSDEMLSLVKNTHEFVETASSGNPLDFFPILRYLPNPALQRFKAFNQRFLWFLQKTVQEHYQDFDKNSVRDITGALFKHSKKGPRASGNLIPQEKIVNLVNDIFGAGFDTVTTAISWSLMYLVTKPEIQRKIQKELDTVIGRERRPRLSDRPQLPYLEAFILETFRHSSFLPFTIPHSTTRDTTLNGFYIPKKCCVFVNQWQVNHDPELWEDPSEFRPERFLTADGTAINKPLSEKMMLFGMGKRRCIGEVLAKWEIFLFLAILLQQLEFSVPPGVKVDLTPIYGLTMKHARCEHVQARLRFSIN
Sequence of UniProt P19793 (P19793 whole entry, looked up): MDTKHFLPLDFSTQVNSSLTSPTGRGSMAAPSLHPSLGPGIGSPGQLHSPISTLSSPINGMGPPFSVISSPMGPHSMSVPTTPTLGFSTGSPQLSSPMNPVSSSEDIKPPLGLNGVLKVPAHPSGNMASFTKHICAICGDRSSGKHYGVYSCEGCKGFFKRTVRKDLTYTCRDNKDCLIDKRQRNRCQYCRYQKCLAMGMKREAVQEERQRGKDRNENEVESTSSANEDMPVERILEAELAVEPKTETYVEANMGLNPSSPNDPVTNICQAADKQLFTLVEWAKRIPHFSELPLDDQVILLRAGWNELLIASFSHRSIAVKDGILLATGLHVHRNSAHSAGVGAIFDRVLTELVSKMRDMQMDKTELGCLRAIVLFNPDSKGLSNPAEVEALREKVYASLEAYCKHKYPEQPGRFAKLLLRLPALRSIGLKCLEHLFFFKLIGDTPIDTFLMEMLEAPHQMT
Sequence of UniProt P10635 (P10635 whole entry, looked up): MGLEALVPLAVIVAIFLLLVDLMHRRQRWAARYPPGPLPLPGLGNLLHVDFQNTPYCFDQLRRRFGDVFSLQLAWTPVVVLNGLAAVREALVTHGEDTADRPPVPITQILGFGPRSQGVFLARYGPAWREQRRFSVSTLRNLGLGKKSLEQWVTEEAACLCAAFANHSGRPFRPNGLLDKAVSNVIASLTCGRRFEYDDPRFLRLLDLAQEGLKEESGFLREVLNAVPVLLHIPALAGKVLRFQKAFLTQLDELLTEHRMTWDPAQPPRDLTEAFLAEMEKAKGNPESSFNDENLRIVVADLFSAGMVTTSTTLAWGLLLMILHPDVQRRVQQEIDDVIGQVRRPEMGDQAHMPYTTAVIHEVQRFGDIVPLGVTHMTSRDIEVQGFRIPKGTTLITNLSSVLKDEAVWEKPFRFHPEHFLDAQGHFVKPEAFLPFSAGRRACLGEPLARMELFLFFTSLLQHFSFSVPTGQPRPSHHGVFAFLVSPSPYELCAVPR
Sequence of UniProt Q92731 (Q92731 whole entry, looked up): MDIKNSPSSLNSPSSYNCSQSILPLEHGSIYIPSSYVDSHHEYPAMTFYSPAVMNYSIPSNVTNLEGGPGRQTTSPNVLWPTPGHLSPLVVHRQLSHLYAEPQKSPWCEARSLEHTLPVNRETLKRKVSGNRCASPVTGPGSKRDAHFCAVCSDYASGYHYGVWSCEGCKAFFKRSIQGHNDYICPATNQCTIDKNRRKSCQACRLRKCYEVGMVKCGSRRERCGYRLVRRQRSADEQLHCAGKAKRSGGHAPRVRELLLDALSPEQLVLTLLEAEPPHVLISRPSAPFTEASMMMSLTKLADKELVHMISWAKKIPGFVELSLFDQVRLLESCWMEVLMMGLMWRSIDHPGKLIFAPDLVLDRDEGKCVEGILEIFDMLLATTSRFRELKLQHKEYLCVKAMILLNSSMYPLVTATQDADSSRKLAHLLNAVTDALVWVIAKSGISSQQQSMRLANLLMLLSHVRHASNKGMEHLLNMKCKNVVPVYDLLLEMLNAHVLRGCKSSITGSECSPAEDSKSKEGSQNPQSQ
Sequence of UniProt P11712 (P11712 whole entry, looked up): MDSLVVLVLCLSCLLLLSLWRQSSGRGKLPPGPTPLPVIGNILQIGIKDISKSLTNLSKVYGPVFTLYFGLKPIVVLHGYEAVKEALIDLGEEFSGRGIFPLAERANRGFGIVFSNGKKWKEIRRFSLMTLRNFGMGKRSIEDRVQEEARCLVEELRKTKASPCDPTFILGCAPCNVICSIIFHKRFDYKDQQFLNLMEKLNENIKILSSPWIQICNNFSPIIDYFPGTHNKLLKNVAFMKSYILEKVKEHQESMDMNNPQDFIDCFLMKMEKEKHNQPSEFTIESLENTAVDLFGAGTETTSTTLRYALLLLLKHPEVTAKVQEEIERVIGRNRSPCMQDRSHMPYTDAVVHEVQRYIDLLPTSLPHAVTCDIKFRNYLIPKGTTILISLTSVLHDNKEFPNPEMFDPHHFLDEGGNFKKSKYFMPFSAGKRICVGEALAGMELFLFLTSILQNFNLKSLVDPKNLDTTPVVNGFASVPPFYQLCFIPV

CC(C)(C)NCC(O)c1cc(Cl)c(N)c(C(F)(F)F)c1 (stereo not drawn)
Potency [1]: inactive | Potency [2]: inconclusive: 26.6 µM [rising, partial curve, poor fit] | Potency [3]: inconclusive: 29.8 µM [cytotoxic, partial curve] | Potency [4]: inactive | Potency [5]: inactive | Potency [6]: inactive | Potency [7]: inactive | Potency [8]: inconclusive: 29.8 µM [activator, single point] | Potency [9]: inactive

O=P(OCCCl)(OCCCl)OCCCl
ratio activity, negative = MMP loss [10]: inconclusive: 22.6% | Potency [1]: inactive | Potency [4]: inactive | activity change, negative = inhibition [5]: inconclusive: 17.3% | Potency [6]: inconclusive: 54.5 µM [activator, single point] | activation [7]: inconclusive: 15.2% | activity, negative = inhibition [8]: inconclusive: -0.784% | Potency [11]: inconclusive: 68.6 µM [rising, partial curve, poor fit] | Potency [12]: inconclusive: 2.71 µM [cytotoxic, single point] | Potency [13]: inconclusive: 62.7 µM [inhibitor, partial curve] and inconclusive: 79.6 µM [inhibitor, partial curve, poor fit] | Potency [9]: active: 35.3 µM and active: 35.6 µM

CNC(=O)O/N=C/C(C)(C)S(C)=O (stereo not drawn)
Potency [2]: inactive | Potency [14, 20]: inactive | activity change, negative = inhibition [5]: inconclusive: 2.11% | Potency [6]: inactive | Potency [7]: inactive | Potency [9]: inactive

C=CC(=O)OCCCCCC(C)C
ratio activity, negative = MMP loss [10]: inconclusive: -1.9% | Potency [3]: inconclusive: 30.6 µM [rising, partial curve, poor fit] | ratio activity, negative = inhibition ([14]; at 62.6 µM (top of the series)): inconclusive: -11.8% | ratio activity, negative = inhibition ([14]; at 81.1 µM (top of the series)): inconclusive: 16.3% | Potency [6]: inactive | Potency [7]: inactive | Potency [8]: inactive | Potency [11]: inconclusive: 1.09 µM [rising, full curve, poor fit] | Potency [12]: inconclusive: 27.3 µM [rising, full curve, poor fit] | Potency [15]: inconclusive: 83.8 µM [inhibitor, partial curve, poor fit] | Potency [9]: inconclusive: 42 µM [inhibitor, full curve]

CCOP(=S)(OCC)SCS(=O)(=O)C(C)(C)C
Potency [6]: inconclusive: 43.6 µM [falling, partial curve, poor fit] | Potency [7]: inactive | Potency [16]: inconclusive: 127 µM [fluorescent, single point] | Potency [17]: inconclusive: 19.3 µM [inhibitor, single point] | activity, negative = inhibition [8]: inconclusive: -6.85% | Potency [18]: active: 68.6 µM | Potency [19]: inconclusive: 68.6 µM [cytotoxic, single point] | Potency [12]: inconclusive: 0.243 µM [cytotoxic, single point] | Potency [15]: inconclusive: 39.9 µM [inhibitor, partial curve]

O=c1oc2ccccc2c(O)c1C1CCCc2ccccc21 (stereo not drawn)
Potency [10]: active: 13.7 µM | Potency [1]: inactive | Potency [3]: inconclusive: 68.6 µM [cytotoxic, single point] | Potency [14, 20]: active: 30.9 µM | Potency [4]: inconclusive: 61.1 µM [rising, partial curve] | Potency [6]: inactive | activation [7]: inconclusive: 8.03% | Potency [11]: inconclusive: 43.3 µM [cytotoxic, partial curve] | Potency [15]: inactive | Potency [13]: active: 3.99 µM

CC(C)c1ccc(NC(=O)N(C)C)cc1
Potency [3]: inactive | Potency [6]: inactive | Potency [7]: inactive | Potency [11]: inactive

O=C(O)CBr
Potency [2]: inactive | ratio activity, negative = inhibition [14, 20]: inconclusive: 9.71% | Potency [6]: inactive | Potency [7]: inactive | activity, negative = inhibition [8]: inconclusive: 23.5% | Potency [12]: inactive

Oc1ccc2c3c1O[C@H]1[C@@H](O)C=C[C@H]4[C@@H](C2)NCC[C@@]341
Potency [4]: inconclusive: 70.6 µM [rising, single point] | Potency [6]: inactive | Potency [7]: inactive | Potency [17]: active: 1.99 µM | Potency [8]: inconclusive: 39.7 µM [inhibitor, partial curve] | Potency [12]: inconclusive: 79.3 µM [cytotoxic, single point] | Potency [15]: inconclusive: 36.7 µM [inhibitor]

CCC[CH2][Sn]([Cl])([Cl])[Cl]
Potency [10]: inconclusive: 0.554 µM [rising, single point] | activity change, negative = inhibition ([1]; at 58.5 µM (top of the series)): inconclusive: -20.5% | activity change, negative = inhibition ([1]; at 78.9 µM (top of the series)): inconclusive: -27.4% | ratio activity, negative = inhibition ([14]; at 81.1 µM (top of the series)): inactive: -4.21% | ratio activity, negative = inhibition [14, 20]: inconclusive: 14.9% | Potency [4]: active: 1.1 µM and active: 2.43 µM | activation [6]: inconclusive: -2.21% | Potency [7]: inactive | Potency [15]: inconclusive: 18.1 µM [inhibitor, partial curve, poor fit] | Potency [13]: inconclusive: 90.8 µM [inhibitor, partial curve, poor fit]
